Laboratory results published in PubChem BioAssay AID652104 (National Center for Advancing Translational Sciences (NCATS), 2013).
About 7,200 (1.8%) of roughly 410,000 compounds were called active. The inconclusive results got no clear call from the source; some entries with a clear call stand among them for comparison. Calls come from the whole dose curve; as a rule, active = well fitted activation curve with a large enough effect; inconclusive = small, poorly fitted or top-dose-only effect, or another doubt; inactive = no such curve, though single readings can be large or run the other way. Potencies beside an inconclusive call are fits to weak or partial responses and may not hold up.

Experiment: qHTS of TDP-43 Inhibitors; note: nearly all actives have a fitted effect of over 50% in size; for growth rescue (activation): % of control where 0% means no effect
Settings: TDP-43 expressing yeast growth rescue, BacTiter-Glo, 24 h; growth rescue (activation): at 46.1 µM (top of the series) unless noted
Method in brief: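 Yeast cells expressing TDP-43 under galactose induction are exposed to compounds for 24 hr at 30 deg C. BacTiter-Glo luminescence measures growth, so protective compounds score as activators.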
Potency is the fitted concentration of half-maximal effect; tags give direction and shape of the fitted curve.

Potency, active:
c1ccc(-c2nnc(N3CCCC3)nc2-c2ccccc2)cc1 17.8 µM, COc1ccc(C(=O)NC(=S)Nc2ccccc2N2CCCCC2)cc1[N+](=O)[O-] 15.8 µM, O=C(COC(=O)c1c(Cl)cccc1Cl)Nc1ccccc1Br 14.1 µM, CCO[C@@H]1OC(C(=O)Nc2ccccc2)=C[C@H](c2ccc(C(F)(F)F)cc2)[C@H]1CCCO 12.6 µM, CCC1CCc2sc(C(=O)N(C)CC(=O)Nc3ccc(OC)cc3)cc2C1 (configuration not stated) 11.2 µM

Potency, inconclusive:
O=C(COC(=O)CSc1cc(Cl)ccc1Cl)NCc1ccc2c(c1)OCO2 12.6 µM [activator, single point], O=C1c2[nH]nc(-c3ccccc3O)c2C(c2cccc(Cl)c2)N1Cc1ccco1 (configuration not stated) 22.4 µM [activator, single point], CCN(CC)c1ccc(/C=N/NC(=O)c2nnn(-c3nonc3N)c2C(C)C)c(O)c1 22.4 µM [activator, single point], Cc1ccc(Nc2nc(N)c([N+](=O)[O-])c(N3CCC(C)CC3)n2)cc1C 15.8 µM [activator, single point], O=S(=O)(Nc1ccc2c(c1)OCO2)c1ccc(Br)s1 15.8 µM [activator, single point], O=C(Nc1cscc1S(=O)(=O)c1ccccc1)c1ccccc1Cl 11.2 µM [activator, partial curve], O=S(=O)(Nc1ccc(C(F)(F)F)cc1)c1ccc2c(c1)OCCO2 35.5 µM [activator, single point], COc1ccc(-c2ccc3c(c2)[C@@H]2C[C@H]4[C@@H](C(=O)N2CC3)[C@H](C)ON4C)cc1 35.5 µM [activator, single point], CN(c1ccc(C(=O)Nc2ccccc2Sc2ccccc2)cc1)S(C)(=O)=O 31.6 µM [activator, single point], O=S(=O)(c1cc(Cl)ccc1Cl)N1CCN(c2ccccn2)CC1 10 µM [activator, partial curve], O=C(C[n+]1ccccc1)c1ccc(-c2ccccc2)cc1 3.55 µM [activator, partial curve], O=C(Nc1cccc(Oc2ccc3c(c2)C(=O)NC3=O)c1)c1cccs1 0.501 µM [activator, full curve, poor fit], O=C(CCl)N1CCN(S(=O)(=O)c2ccc3c(c2)CCC3)CC1 35.5 µM [activator, partial curve, poor fit], OC1(C#Cc2c(-c3ccsc3)oc3ccc(N4CCOCC4)cc23)CCCCC1 28.2 µM [activator, single point], COc1cccc(C(C)(O)c2nc(-c3ccccc3)cs2)c1 (configuration not stated) 22.4 µM [activator, single point], CCCCOc1ccc(C(=O)O)cc1 15.8 µM [activator, partial curve], COc1ccc(C(C[N+](=O)[O-])c2c(C)cc3ccccn23)cc1 (configuration not stated) 35.5 µM [activator, single point], Cc1ccc(Cn2c3ccccc3c3cn[nH]c(=O)c32)cc1 3.16 µM [activator, partial curve], Cc1ccc(NC(=O)CSc2nc3cc(C(=O)NCC4CCCO4)ccc3c(=O)n2CC2CCCO2)cc1 (configuration not stated) 0.355 µM [activator, partial curve, poor fit], Cc1c(Cl)cccc1NC(=O)Cn1nnc(-c2nc(-c3ccccc3)no2)c1N 0.891 µM [activator, full curve, poor fit], Cc1cccc(C(=O)NC(=S)Nc2cccc3nc(C)ccc23)c1 14.1 µM [activator, partial curve], N#C/C(=C\c1ccccc1)C(=O)NCCN1CCOCC1 2.82 µM [activator, single point], COc1ccc(-c2cc3ncccc3cn2)cc1 14.1 µM [activator, partial curve], O=C(Cn1cc2c(n1)CCCC2)NCCCN1CCN(c2ccccc2F)CC1 14.1 µM [activator, partial curve], COc1ccc(-c2nc3cc(C)c(Br)c(C)n3c2Cc2cccc(F)c2)cc1OC 25.1 µM [activator, single point], COc1ccc(S(=O)(=O)Nc2ccc3ccccc3c2)cc1C 15.8 µM [activator, single point], Cc1cc([N+](=O)[O-])cc2ncccc12 31.6 µM [activator, single point], Cc1cccc(N2CCN(C(=O)c3ccc4c(Cl)c5c(nc4c3)CCCC5)CC2)c1C 11.2 µM [activator, partial curve, poor fit], COc1ccc(C2c3cc4c(cc3OC(NNC(N)=O)C2C)OCO4)cc1 (configuration not stated) 15.8 µM [activator, single point]

Growth rescue (activation), inactive:
Cn1c(-c2ccccc2)c(C(=O)CC#N)c2ccccc21 -7.8% [at 0.397 µM], CCOC(=O)c1cccc(NC(=O)c2ccc3nc(CCc4ccccc4)oc3c2)c1 0.422%, O=C(COC(=O)c1ccccc1-c1nc2ccccc2s1)NC1CCS(=O)(=O)C1 (configuration not stated) -11.7%, Cc1c(NC(=O)c2sc3ccccc3c2Cl)cccc1-c1nc2ccccc2o1 -8.07%, CCCOc1ccc(C(=O)Nc2ccc3oc(-c4ccc(N(C)C)cc4)nc3c2)cc1 16.6%, COc1ccccc1-n1c(SCC(=O)O)nc2c(sc(=S)n2-c2ccccc2C)c1=O -0.714%, N#C/C(=C(/O)CSc1nnc(Cc2cccs2)n1C1CCCCC1)c1nc2ccccc2[nH]1 8.71%

Growth rescue (activation), inconclusive:
Cc1cccc(NC(=O)COC(=O)c2ccc([N+](=O)[O-])o2)c1C -69% [activator]
